The values that follow come from article PMC4336329 (PLoS ONE, 2015).

Molecules are shown by their SMILES. In all, about 310,000 compounds went through this assay and about 14,000 (4.5%) showed an effect of 50% or more. Effects have a minus sign here. Some of the results follow.
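Further: peak tail current of the secondary pulse compared with the same well before compound.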

The target in this assay is human ether-à-go-go-related gene (hERG) potassium channel (human, UniProt Q12809). Nature of the assay: primary screen, population patch clamp on CHO cells stably expressing hERG.
Chain of human ether-à-go-go-related gene (hERG) potassium channel (Q12809 whole entry, looked up): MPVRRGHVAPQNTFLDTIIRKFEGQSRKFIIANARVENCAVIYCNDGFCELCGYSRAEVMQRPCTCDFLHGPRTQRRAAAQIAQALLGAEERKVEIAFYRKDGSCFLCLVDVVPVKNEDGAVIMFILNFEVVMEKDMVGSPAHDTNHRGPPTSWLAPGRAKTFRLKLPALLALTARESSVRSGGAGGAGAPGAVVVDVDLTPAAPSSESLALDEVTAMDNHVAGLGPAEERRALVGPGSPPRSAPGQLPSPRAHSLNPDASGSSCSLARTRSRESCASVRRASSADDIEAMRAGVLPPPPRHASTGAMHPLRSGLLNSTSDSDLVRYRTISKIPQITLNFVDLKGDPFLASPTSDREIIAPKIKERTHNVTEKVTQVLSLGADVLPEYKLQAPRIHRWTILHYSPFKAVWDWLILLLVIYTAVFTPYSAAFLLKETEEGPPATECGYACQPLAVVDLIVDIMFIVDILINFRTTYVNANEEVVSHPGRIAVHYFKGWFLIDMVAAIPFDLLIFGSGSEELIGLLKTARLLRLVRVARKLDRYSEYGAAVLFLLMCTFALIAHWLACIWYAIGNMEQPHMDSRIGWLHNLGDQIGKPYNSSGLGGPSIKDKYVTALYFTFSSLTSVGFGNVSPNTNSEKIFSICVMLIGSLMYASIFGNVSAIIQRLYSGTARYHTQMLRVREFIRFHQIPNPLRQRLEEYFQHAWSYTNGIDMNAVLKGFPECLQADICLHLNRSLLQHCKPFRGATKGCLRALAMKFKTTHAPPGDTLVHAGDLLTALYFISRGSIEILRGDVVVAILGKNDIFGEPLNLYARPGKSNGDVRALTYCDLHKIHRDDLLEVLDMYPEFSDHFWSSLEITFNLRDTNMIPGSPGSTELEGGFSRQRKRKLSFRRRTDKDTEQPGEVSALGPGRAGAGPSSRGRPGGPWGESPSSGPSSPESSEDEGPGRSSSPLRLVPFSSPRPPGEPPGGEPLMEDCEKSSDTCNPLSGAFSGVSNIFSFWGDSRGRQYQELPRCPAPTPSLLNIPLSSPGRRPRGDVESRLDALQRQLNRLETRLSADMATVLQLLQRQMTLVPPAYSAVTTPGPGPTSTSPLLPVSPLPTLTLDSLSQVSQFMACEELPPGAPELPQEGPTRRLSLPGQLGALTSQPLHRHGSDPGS
In the case of `Cc1ccc(N=C/C(C(=O)C(F)(F)F)=C(\O)c2ccco2)cc1Cl`, the “hERG current change (%, negative = inhibition) at 10uM” value was -7.36%.
Next, `O=[N+]([O-])c1ccc(N2CCNCC2)cc1NCC1CCCO1` (centres unmarked): -22.1%.
Next, `O=C(C[n+]1cccc2ccccc21)c1ccc(Cl)cc1.[Br-]`: -23.7%; `S=c1sc(SCCOc2ccccc2)nn1-c1ccccc1`: 7.64%; `CCn1c(SCC(=O)N/N=C/C=C\c2ccco2)nc2ccccc21`: -9.42%.
Next, `CC1(C)CC(CNCCC(c2ccc(F)cc2)c2ccco2)CCO1` (centres unmarked): -62.5%; `CC(C)NC(=O)c1onc(CSc2ccccc2)c1C(=O)O`: 8.65%.
Turning to `O=C(Nn1cnnc1)c1ccc(Br)s1`, the “hERG current change (%, negative = inhibition) at 10uM” value came to 13.9%.
The value for `O=C(COc1ccc(Br)cc1CNC1CCCCC1)NCCc1ccccc1` was -77%.
Next, `NC(=O)COC(=O)c1ccc(S(=O)(=O)NCc2ccco2)cc1`: 8.43%; `CCc1cc(C(=O)N/N=C/c2ccc(O)cc2)c2ccccc2n1`: 21.4%.
Next, `COc1ccc(NC(=O)C/C(C)=N/NC(=O)c2ccccn2)c(OC)c1`: 8.89%.
For the compound `CCOC(=O)c1c(NC(=O)c2cccc([N+](=O)[O-])c2C(=O)O)sc2c1CCCC2`, the “hERG current change (%, negative = inhibition) at 10uM” value came out at 14.8%.
The value for `Fc1ccc(-c2csc3ncnc(N4CCc5ccccc5C4)c23)cc1` was 5.91%.
The value for `Cc1ccc(/C=N/Nc2nnc(Cc3ccccc3)c(=O)[nH]2)o1` was 10.7%.
The value for `Cc1cccc(OCC(=O)NNc2c3ccccc3nc3ccccc23)c1` was -5.54%; that for `O=C(Nc1nc2ccccc2s1)c1c(F)cccc1Cl` was 12.1%.
Turning to `CCOc1ccc(N2C(=O)CC(Sc3ccccc3C(=O)O)C2=O)c([N+](=O)[O-])c1` (centres unmarked), the “hERG current change (%, negative = inhibition) at 10uM” value is listed as 45.4%.
As for `Cc1cccc(NC(=O)CSc2nnc(-c3ccccc3Br)o2)c1C`, the “hERG current change (%, negative = inhibition) at 10uM” value came to 0.638%.
The value for `O=C(CSc1ncc(C(=O)O)n1-c1ccc(F)cc1)NCc1ccc2c(c1)OCO2` was 35.8%; that for `O=C(CN(C(=O)CCC(=O)Nc1ccccn1)c1cccc(F)c1)NCc1ccco1` was 12.3%.
Next, `Cc1cc(C(C#N)c2ccc(Cl)cc2)c(Cl)cc1NC(=O)c1cc(I)cc(I)c1O` (centres unmarked): 8.79%; `Cc1cccc(C)c1NC(=O)C(C)Sc1n[nH]c(-c2ccncc2)n1` (centres unmarked): 10.7%; `Cc1ccc(C)c(OCCn2cc(/C=C(\C#N)C(=O)NCC3CCCO3)c3ccccc32)c1` (centres unmarked): 5.38%.
The value for `Cc1ccc(-n2c([O-])nc(-[n+]3ccccc3)c2C=O)cc1` was 11.8%; that for `Cc1ccc(CN2CCSc3ccc(C(=O)NCc4ccccn4)cc32)cc1` was -18.1%.
Turning to `COc1ccc(NC(=O)Cn2c(=O)n(CC3CCCO3)c(=O)c3cc(OC)c(OC)cc32)c(OC)c1` (centres unmarked), the “hERG current change (%, negative = inhibition) at 10uM” value is -22.2%.
Take `COc1ccccc1OC(C)C(=O)N1CC(=O)Nc2ccccc21` (centres unmarked): the “hERG current change (%, negative = inhibition) at 10uM” value was determined as 15.8%.
The value for `CSCCC(NS(=O)(=O)c1ccccc1F)C(=O)NCC(c1ccc(F)cc1)N1CCOCC1` (centres unmarked) was -1.67%; that for `O=C(Nc1ccccc1Cl)N1CCN(c2ccc3nnc(-c4ccc(F)cc4)n3n2)CC1` was -42.1%.
Next, `Cc1ccc(C(=O)NC(=S)NNC(=O)CC#N)cc1`: 19%; `O=C(O)c1cccc(Cn2cc(Cl)cn2)c1`: 7.03%.
Next, `COCCN(C(=O)c1ccccc1)c1nc(-c2ccc(OC)cc2)cs1`: 28.5%; `CC(C)NS(=O)(=O)c1ccc(OCC(=O)NC2CCCCCC2)cc1`: 8.11%.
With `COc1ccc(-n2c(C)cc(C(=O)CN3C(=O)C(=O)N(Cc4ccccc4)C3=O)c2C)cc1`, the “hERG current change (%, negative = inhibition) at 10uM” value was 10.9%.
The value for `Cc1ccccc1N1C(=O)CC(Sc2nnc(-c3ccccc3)o2)C1=O` (centres unmarked) was -1.23%; that for `CC12CC3CC(C)(C1)CC(C(=O)Nc1nncs1)(C3)C2` was 11.3%; that for `CCN(CC)S(=O)(=O)c1ccc(NC(=O)Cn2c(=O)oc3ccccc32)cc1` was -10.7%.
Consider `O=C(Nc1cccc(Cl)c1)OCc1cn(-c2ccccc2)nn1`, for which the “hERG current change (%, negative = inhibition) at 10uM” value is -52.6%.
The value for `O=C(NCCC(=O)N1CCC2(CC1)NCCc1[nH]cnc12)c1cccc(C(F)(F)F)c1` was 17.1%.
The value for `COc1ccc(S(=O)(=O)Nc2cc3c4c(c2)CC(=O)N4CCC3)cc1C` was -4.48%; that for `O=C(Nc1cc(S(=O)(=O)N2CCOCC2)ccc1O)c1ccco1` was 2.64%; that for `Cc1cc2nc(C)c(=O)n(C)c2cc1C` was 27.1%.
The value for `COC(=O)COc1cccc2c(=O)n(CC(=O)NCc3ccc(F)cc3)ccc12` was 1.82%.
